Experimental data: the supplement of paper PMC8728848
This is one part of the list.

Experiments:
Assay in all cases: glycan array binding signal (z-score within array); higher = stronger binding
Conditions in all cases: glycan notation: IUPAC condensed, linker removed
[1] = target: Fuc(a1-3)[Gal(b1-4)]GlcNAc
Method in brief: (§1)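 From the Consortium for Functional Glycomics database, 3228 arrays were curated, keeping only those whose protein sequence was available. Binding is given as a within-array Z-score averaged across arrays sharing a protein sequence and across linkers. Negative Z-scores can be read as non-binding.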

[2] = target: Fuc(a1-3)[Gal(b1-4)]GlcNAc(b1-4)Gal(b1-4)[Fuc(a1-3)]GlcNAc
Method in brief: as §1

[3] = target: Fuc(a1-3)[Gal(b1-4)]GlcNAc(b1-4)Gal(b1-4)[Fuc(a1-3)]GlcNAc(b1-4)Gal(b1-4)[Fuc(a1-3)]GlcNAc
Method in brief: as §1

[4] = target: Fuc(a1-3)[Gal3S(b1-4)]GlcNAc
Method in brief: as §1

[5] = target: Fuc(a1-3)[GalNAc(b1-4)]GlcNAc
Method in brief: as §1

Fuc(a1-4)GlcNAc = target: Fuc(a1-4)GlcNAc
Method in brief: as §1

Fuc(b1-3)GlcNAc = target: Fuc(b1-3)GlcNAc
Method in brief: as §1

Gal(a1-2)Gal = target: Gal(a1-2)Gal
Method in brief: as §1

Gal(a1-3)Gal = target: Gal(a1-3)Gal
Method in brief: as §1

Gal(a1-3)Gal(b1-3)GlcNAc = target: Gal(a1-3)Gal(b1-3)GlcNAc
Method in brief: as §1

Gal(a1-3)Gal(b1-4)Glc = target: Gal(a1-3)Gal(b1-4)Glc
Method in brief: as §1

Gal(a1-3)Gal(b1-4)GlcNAc = target: Gal(a1-3)Gal(b1-4)GlcNAc
Method in brief: as §1

[6] = target: Gal(a1-3)Gal(b1-4)[Fuc(a1-3)]GlcNAc
Method in brief: as §1

Gal(a1-3)GalNAc = target: Gal(a1-3)GalNAc
Method in brief: as §1

[7] = target: Gal(a1-3)[Gal(a1-4)]Gal(b1-4)GlcNAc
Method in brief: as §1

Gal(a1-4)Gal(b1-4)Glc = target: Gal(a1-4)Gal(b1-4)Glc
Method in brief: as §1

Gal(a1-4)Gal(b1-4)GlcNAc = target: Gal(a1-4)Gal(b1-4)GlcNAc
Method in brief: as §1

Gal(a1-4)GlcNAc = target: Gal(a1-4)GlcNAc
Method in brief: as §1

Gal(a1-6)Glc = target: Gal(a1-6)Glc
Method in brief: as §1

Gal(b1-2)Gal = target: Gal(b1-2)Gal
Method in brief: as §1

Gal(b1-3)Gal = target: Gal(b1-3)Gal
Method in brief: as §1

Gal(b1-3)GalNAc = target: Gal(b1-3)GalNAc
Method in brief: as §1

[8] = target: Gal(b1-3)GalNAc(b1-3)Gal(a1-4)Gal(b1-4)Glc
Method in brief: as §1

[9] = target: Gal(b1-3)GalNAc(b1-4)Gal(b1-4)Glc
Method in brief: as §1

[10] = target: Gal(b1-3)GalNAc(b1-4)[Neu5Ac(a2-3)]Gal(b1-4)Glc
Method in brief: as §1

Gal(b1-3)GlcNAc = target: Gal(b1-3)GlcNAc
Method in brief: as §1

[11] = target: Gal(b1-3)GlcNAc(b1-3)Gal(b1-4)Glc
Method in brief: as §1

[12] = target: Gal(b1-3)GlcNAc(b1-3)Gal(b1-4)GlcNAc
Method in brief: as §1

[13] = target: Gal(b1-3)[Fuc(a1-4)]GlcNAc
Method in brief: as §1

[14] = target: Gal(b1-3)[Fuc(a1-4)]GlcNAc(b1-3)Gal(b1-4)GlcNAc
Method in brief: as §1

B1: MMR (Homo sapiens), P22897 (protein)
chain: MRLPLLLVFASVIPGAVLLLDTRQFLIYNEDHKRCVDAVSPSAVQTAACNQDAESQKFRWVSESQIMSVAFKLCLGVPSKTDWVAITLYACDSKSEFQKWECKNDTLLGIKGEDLFFNYGNRQEKNIMLYKGSGLWSRWKIYGTTDNLCSRGYEAMYTLLGNANGATCAFPFKFENKWYADCTSAGRSDGWLWCGTTTDYDTDKLFGYCPLKFEGSESLWNKDPLTSVSYQINSKSALTWHQARKSCQQQNAELLSITEIHEQTYLTGLTSSLTSGLWIGLNSLSFNSGWQWSDRSPFRYLNWLPGSPSAEPGKSCVSLNPGKNAKWENLECVQKLGYICKKGNTTLNSFVIPSESDVPTHCPSQWWPYAGHCYKIHRDEKKIQRDALTTCRKEGGDLTSIHTIEELDFIISQLGYEPNDELWIGLNDIKIQMYFEWSDGTPVTFTKWLRGEPSHENNRQEDCVVMKGKDGYWADRGCEWPLGYICKMKSRSQGPEIVEVEKGCRKGWKKHHFYCYMIGHTLSTFAEANQTCNNENAYLTTIEDRYEQAFLTSFVGLRPEKYFWTGLSDIQTKGTFQWTIEEEVRFTHWNSDMPGRKPGCVAMRTGIAGGLWDVLKCDEKAKFVCKHWAEGVTHPPKPTTTPEPKCPEDWGASSRTSLCFKLYAKGKHEKKTWFESRDFCRALGGDLASINNKEEQQTIWRLITASGSYHKLFWLGLTYGSPSEGFTWSDGSPVSYENWAYGEPNNYQNVEYCGELKGDPTMSWNDINCEHLNNWICQIQKGQTPKPEPTPAPQDNPPVTEDGWVIYKDYQYYFSKEKETMDNARAFCKRNFGDLVSIQSESEKKFLWKYVNRNDAQSAYFIGLLISLDKKFAWMDGSKVDYVSWATGEPNFANEDENCVTMYSNSGFWNDINCGYPNAFICQRHNSSINATTVMPTMPSVPSGCKEGWNFYSNKCFKIFGFMEEERKNWQEARKACIGFGGNLVSIQNEKEQAFLTYHMKDSTFSAWTGLNDVNSEHTFLWTDGRGVHYTNWGKGYPGGRRSSLSYEDADCVVIIGGASNEAGKWMDDTCDSKRGYICQTRSDPSLTNPPATIQTDGFVKYGKSSYSLMRQKFQWHEAETYCKLHNSLIASILDPYSNAFAWLQMETSNERVWIALNSNLTDNQYTWTDKWRVRYTNWAADEPKLKSACVYLDLDGYWKTAHCNESFYFLCKRSDEIPATEPPQLPGRCPESDHTAWIPFHGHCYYIESSYTRNWGQASLECLRMGSSLVSIESAAESSFLSYRVEPLKSKTNFWIGLFRNVEGTWLWINNSPVSFVNWNTGDPSGERNDCVALHASSGFWSNIHCSSYKGYICKRPKIIDAKPTHELLTTKADTRKMDPSKPSSNVAGVVIIVILLILTGAGLAAYFFYKKRRVHLPQEGAFENTLYFNSQSSPGTSDMKDLVGNIEQNEHSVI
**Q.** What does the source list for B1?
**A.** glycan array binding signal (z-score) [1]: -0.427; glycan array binding signal (z-score) [2]: 0.036; glycan array binding signal (z-score) [3]: -0.405; glycan array binding signal (z-score) [4]: 2.96; glycan array binding signal (z-score) [5]: -0.4; glycan array binding signal (z-score) (Fuc(a1-4)GlcNAc): -0.416; glycan array binding signal (z-score) (Fuc(b1-3)GlcNAc): -0.438; glycan array binding signal (z-score) (Gal(a1-2)Gal): -0.425; glycan array binding signal (z-score) (Gal(a1-3)Gal): -0.396; glycan array binding signal (z-score) (Gal(a1-3)Gal(b1-3)GlcNAc): -0.433; glycan array binding signal (z-score) (Gal(a1-3)Gal(b1-4)Glc): -0.425; glycan array binding signal (z-score) (Gal(a1-3)Gal(b1-4)GlcNAc): -0.44; glycan array binding signal (z-score) [6]: -0.4; glycan array binding signal (z-score) (Gal(a1-3)GalNAc): -0.441; glycan array binding signal (z-score) [7]: -0.452; glycan array binding signal (z-score) (Gal(a1-4)Gal(b1-4)Glc): -0.228; glycan array binding signal (z-score) (Gal(a1-4)Gal(b1-4)GlcNAc): -0.43; glycan array binding signal (z-score) (Gal(a1-4)GlcNAc): -0.437; glycan array binding signal (z-score) (Gal(a1-6)Glc): -0.364; glycan array binding signal (z-score) (Gal(b1-2)Gal): -0.42; glycan array binding signal (z-score) (Gal(b1-3)Gal): -0.41; glycan array binding signal (z-score) (Gal(b1-3)GalNAc): -0.441; glycan array binding signal (z-score) [8]: -0.345; glycan array binding signal (z-score) [9]: -0.399; glycan array binding signal (z-score) [10]: -0.424; glycan array binding signal (z-score) (Gal(b1-3)GlcNAc): -0.43; glycan array binding signal (z-score) [11]: -0.419; glycan array binding signal (z-score) [12]: -0.371; glycan array binding signal (z-score) [13]: -0.375; glycan array binding signal (z-score) [14]: -0.367
